Test [1] relates to Tetranychus urticae female adults. In words: whole plant or invertebrate. Particulars: 48 h, read-out: Determination (mortality rate). On the procedure: A kidney bean leaf section having a diameter of 3 cm was placed on a wet sponge in a plastic cup. Thereafter, ten female adults of Tetranychus urticae were released into the plastic cup. 0.4 ml each of an agent solution prepared by diluting a 10% wettable powder of each compound shown in Table 1 to a concentration of 250 ppm was sprayed thereto. Two days later, the number of deaths was counted, and the mortality rate was then calculated.

The test system of another test is Aphis gossypii. In words: whole plant or invertebrate. The note with it: in Cucumis sativus, 48 h, read-out: Determination (mortality rate). On the procedure:
A cucumber leaf section having a diameter of 3 cm was placed on a wet sponge in a plastic cup. Thereafter, five female adults of Aphis gossypii were released into the plastic cup, and they were then left at rest overnight. Thereafter, the number of new-born larvae was counted. 0.4 ml each of an agent solution prepared by diluting a 10% wettable powder of each compound shown in Table 1 to a concentration of 250 ppm was sprayed thereto. Two days later, the number of deaths was counted, and the mortality rate was then calculated.

As for `O=[N+]([O-])c1ccccc1C#CCCNc1ncnc2sccc12` [compound 38], the mortality at 250 ppm in test [1] was in the range of 60 to 80%.
As for `COCc1ccccc1C#CCCNc1ncnc2sccc12` [compound 45], the results for the mortality at 250 ppm (with Aphis gossypii; in test [1]) were over 95% and 60 to 80%, respectively.
On to `COCc1ccccc1C#CCCNc1ncnc2scc(C)c12` [compound 51], for which the mortality at 250 ppm in test [1] is over 95%.
As to `Brc1csc(C#CCCNc2ncnc3sccc23)n1` [compound 64], the mortality at 250 ppm (in the test on Aphis gossypii; in test [1]) was 60 to 80% throughout.
`COc1nc(C#CCCNc2ncnc3sccc23)cs1` [compound 67]: the mortality at 250 ppm (in the test on Aphis gossypii; in test [1]) was 60 to 80% each time.
`C(#Cc1csc(Oc2ccccc2)n1)CCNc1ncnc2sccc12` [compound 83, 4-[4-(2-Phenoxythiazol-4-yl)-3-butynylamino]thieno[2,3-d]pyrimidine]: the mortality at 250 ppm (with Aphis gossypii; in test [1]) was 60 to 80% in each case.
On to `CN1C(=O)c2ccc(C#CCCNc3ncnc4sccc34)cc2C1=O` [compound 84], for which the mortality at 250 ppm in test [1] was in the range of 60 to 80%.
With `C=C(C#CCCNc1ncnc2ccccc12)c1ccccc1` [compound 95], the mortality at 250 ppm in test [1] was over 95%.
For the compound `Ic1ccc(C#CCCNc2ncnc3ccccc23)cc1` [compound 98], the mortality at 250 ppm (with Aphis gossypii; in test [1]) was 60 to 80% throughout.
`C(#Cc1ccc(C2CCCCC2)cc1)CCNc1ncnc2ccccc12` [compound 109]: the mortality at 250 ppm was 60 to 80% with Aphis gossypii and over 95% in test [1].
Regarding `CN(c1ccc(C#CCCNc2ncnc3ccccc23)cc1)S(C)(=O)=O` [compound 124], the mortality at 250 ppm in the test with Aphis gossypii is 60 to 80%; in test [1] it was over 95%.
Consider `CNC(=O)c1ccc(C#CCCNc2ncnc3ccccc23)cc1` [compound 126], for which, in test [1], the mortality at 250 ppm lay within 60 to 80%.
The same measure, in the same setting: the value for `O=C(O)c1ccc(C#CCCNc2ncnc3ccccc23)cc1` [compound 127] was 60 to 80%; that for `COCc1ccc(C#CCCNc2ncnc3ccccc23)cc1` [compound 136] was over 95%.
For `CCOCc1ccccc1C#CCCNc1ncnc2ccccc12` [compound 153], the mortality at 250 ppm (in the test with Aphis gossypii; in test [1]) was over 95% each time.
With `C(#Cc1ccccc1C1OCCO1)CCNc1ncnc2ccccc12` [compound 155], the mortality at 250 ppm (in the test with Aphis gossypii; in test [1]) was 60 to 80% throughout.
Regarding `Cc1cc(C)c(C#CCCNc2ncnc3ccccc23)c(C)c1` [compound 181], the mortality at 250 ppm (in the test on Aphis gossypii; in test [1]) was over 95% each time.
As for `FC(F)(F)c1ccc(C#CCCNc2ncnc3ccccc23)c(Cl)c1` [compound 182], the mortality at 250 ppm (in the test on Aphis gossypii; in test [1]) was 60 to 80% in each case.
On to `C(#Cc1ccc2ccccc2n1)CCNc1ncnc2ccccc12` [compound 188], for which, in test [1], the mortality at 250 ppm fell in the range of 80 to 95%.
Consider `C(#Cc1ccsc1)CCNc1ncnc2ccccc12` [compound 205], for which the mortality at 250 ppm in the test on Aphis gossypii was in the range of 80 to 95%; in test [1], 60 to 80%.
For `Cc1ccc(C#CCCNc2ncnc3ccccc23)s1` [compound 206] the same measures were over 95% and 80 to 95%.
For the compound `Fc1ccc(Oc2nc(C#CCCNc3ncnc4ccccc34)cs2)cc1` [compound 226], the mortality at 250 ppm in test [1] fell in the range of 60 to 80%.
Take `CC(CC#Cc1ccccc1C(F)(F)F)Nc1ncnc2sccc12` (stereo not shown) [compound 233]: the mortality at 250 ppm with Aphis gossypii was over 95%; in test [1], 80 to 95%.
For `CCc1ccc(C#CCC(C)Nc2ncnc3sccc23)cc1` (stereo not shown) [compound 240], the mortality at 250 ppm (in the test with Aphis gossypii; in test [1]) was over 95% throughout.
As for `CC(CC#Cc1ccc(C(C)C)cc1)Nc1ncnc2sccc12` (stereo not shown) [compound 241], the mortality at 250 ppm was over 95% in the test with Aphis gossypii and 80 to 95% in test [1].
Take `Cc1cc(F)ccc1C#CCC(C)Nc1ncnc2sccc12` (stereo not shown) [compound 246]: the mortality at 250 ppm in the test with Aphis gossypii was over 95%; in test [1], 80 to 95%.
The like results for `CC(CC#Cc1ccc(S(F)(F)(F)(F)F)cc1Cl)Nc1ncnc2sccc12` (stereo not shown) [compound 253] were, in that order, 60 to 80% and 80 to 95%.
For `Cc1ccc(C#CCC(C)Nc2ncnc3sccc23)c(C)c1` (stereo not shown) [compound 259], the mortality at 250 ppm (in the test with Aphis gossypii; in test [1]) was over 95% each time.
As to `CC(CC#Cc1c(Cl)cc(C(F)(F)F)cc1Cl)Nc1ncnc2sccc12` (stereo not shown) [compound 262], the mortality at 250 ppm (in the test on Aphis gossypii; in test [1]) was over 95% throughout.
As to `COCc1ccccc1C#CCCNc1ncnc2ccc(Cl)cc12` [compound 313], the mortality at 250 ppm in the test on Aphis gossypii was over 95%.
Take `COCc1ccccc1C#CCCNc1ncnc2cccc(Cl)c12` [compound 314]: in the test with Aphis gossypii, the mortality at 250 ppm was over 95%.
With `COCc1ccccc1C#CCCNc1ncnc2c(F)cccc12` [compound 315], in the test with Aphis gossypii, the mortality at 250 ppm was over 95%.
Take `COCc1ccccc1C#CCCNc1ncnc2cc(F)ccc12` [compound 316]: in the test on Aphis gossypii, the mortality at 250 ppm was over 95%.
Turning to `COCc1ccccc1C#CCCNc1ncnc2cccc(F)c12` [compound 318], the mortality at 250 ppm in the test with Aphis gossypii is over 95%.
On to `COCc1ccccc1C#CCCNc1ncnc2cc(Br)ccc12` [compound 320], for which the mortality at 250 ppm in the test on Aphis gossypii was over 95%.
For `COCc1ccccc1C#CCCNc1ncnc2ccc(Br)cc12` [compound 321], in the test on Aphis gossypii, the mortality at 250 ppm is over 95%.
Regarding `COCc1ccccc1C#CCCNc1ncnc2c(C(F)(F)F)cccc12` [compound 323], the mortality at 250 ppm with Aphis gossypii is over 95%.
With `COCc1ccccc1C#CCCNc1ncnc2cc(C(F)(F)F)ccc12` [compound 324], the mortality at 250 ppm with Aphis gossypii lay within 60 to 80%.
Take `COCc1ccccc1C#CCCNc1ncnc2c(C)cccc12` [compound 325]: in the test on Aphis gossypii, the mortality at 250 ppm is over 95%.
Turning to `COCc1ccccc1C#CCCNc1ncnc2ccc(C)cc12` [compound 326], the mortality at 250 ppm with Aphis gossypii was over 95%.
For `COCc1ccccc1C#CCCNc1ncnc2c(OC)cccc12` [compound 328], the mortality at 250 ppm with Aphis gossypii was over 95%.
Turning to `COCc1ccccc1C#CCCNc1ncnc2ccc(-c3ccccc3F)cc12` [compound 334], the mortality at 250 ppm in the test with Aphis gossypii was 60 to 80%.
Consider `COCc1ccccc1C#CCCNc1ncnc2ccc(-c3cccc(F)c3)cc12` [compound 335], for which the mortality at 250 ppm in the test with Aphis gossypii is over 95%.
As for `Cc1cccc2c(NC(C)CC#Cc3ccc(Cl)cc3C(F)(F)F)ncnc12` (stereo not shown) [compound 354], the mortality at 250 ppm in the test with Aphis gossypii fell in the range of 80 to 95%.
For the compound `Cc1c(Cl)ncnc1NCCC#Cc1ccccc1` [compound 356], the mortality at 250 ppm in test [1] was 80 to 95%.
For `COCc1cc(C)ccc1C#CCCNc1ncnc(C)c1Cl` [compound 361], in the test on Aphis gossypii, the mortality at 250 ppm is over 95%.
Same read-out and setting: with `COCc1ccccc1C#CCCNc1ncnc(Cl)c1C` [compound 363] the figure was 60 to 80%; with `Cc1c(Cl)ncnc1NCCC#Cc1ccccc1C(F)(F)F` [compound 364], 60 to 80%; with `COCc1ccccc1C#CCCNc1ncnc(Cl)c1Cl` [compound 365], over 95%.
Regarding `COCc1ccccc1C#CCCNc1ncnc(Cl)c1Br` [compound 366], in the test on Aphis gossypii, the mortality at 250 ppm is over 95%.
In the case of `FC(F)(F)c1ccccc1C#CCCNc1ncnc(Cl)c1Br` [compound 367], in the test on Aphis gossypii, the mortality at 250 ppm was 80 to 95%.
As to `CC(CC#Cc1ccc(Cl)cc1C(F)(F)F)Nc1ncnc(C(F)(F)F)c1Cl` (stereo not shown) [compound 388], the mortality at 250 ppm in the test with Aphis gossypii is over 95%.
For the compound `Cc1ncnc(NC(C)CC#Cc2ccccc2)c1Cl` (stereo not shown) [compound 389], the mortality at 250 ppm in the test on Aphis gossypii is over 95%.

Values taken from patent US8586505B2 (SDS Biotech K. K., priority 2009, dated 2013).
